Reference: a collection of fitness landscapes (doi:10.1126/science.1257360)
This is one part of the list.

B1: PhoQ; a variant is named by its letters at X, in order, P23837 (parent)
chain: MKKLLRLFFPLSLRVRFLLATAAVVLVLSLAYGMVALIGYSVSFDKTTFRLLRGESNLFYTLAKWENNKLHVELPENIDKQSPTMTLIYDENGQLLWAQRDVPWLMKMIQPDWLKSNGFHEIEADVNDTSLLLSGDHSIQQQLQEVREDDDDAEMTHSVAVNVYPATSRMPKLTIVVVDTIPVELKSSYMVWSWFIYVLSANLLLVIPLLWVAAWWSLRPIEALAKEVRELEEHNRELLNPATTRELTSLVRNLNRLLKSERERYDKYRTTLTDLTHSLKTPLXXLQXXLRSLRSEKMSVSDAEPVMLEQISRISQQIGYYLHRASMRGGTLLSRELHPVAPLLDNLTSALNKVYQRKGVNISLDISPEISFVGEQNDFVEVMGNVLDNACKYCLEFVEISARQTDEHLYIVVEDDGPGIPLSKREVIFDRGQRVDTLRPGQGVGLAVAREITEQYEGKIVAGESMLGGARMEVIFGRQHSAPKDE

Variants of: B1
Test: enrichment ratio after two sorts for PhoP signalling (ratio (wild type AVST 3.29)); higher = more functional
Conditions: with PhoP (E. coli)

Variant	enrichment ratio
DNRF	≤ 0.25
ETCI	≤ 0.25
NSTE	≤ 0.25
KFNR	≤ 0.25
SCTN	6.66
RYRC	≤ 0.25
AFPH	≤ 0.25
HDEY	≤ 0.25
LSCY	≤ 0.25
YPCQ	≤ 0.25
DCYH	≤ 0.25
GFWV	≤ 0.25
PAQM	≤ 0.25
KESQ	≤ 0.25
TCNP	≤ 0.25
IKRC	≤ 0.25
SSDY	≤ 0.25
YWHG	≤ 0.25
MRIV	≤ 0.25
AFFY	≤ 0.25
SMMF	8.81
ERIH	≤ 0.25
VALQ	9.9
LVAN	≤ 0.25

Variant	enrichment ratio
IEWM	≤ 0.25
SVKD	≤ 0.25
WPRR	≤ 0.25
HLAS	≤ 0.25
YSHS	≤ 0.25
LIDH	≤ 0.25
VVQI	≤ 0.25
DYMQ	≤ 0.25
YYME	≤ 0.25
LCSW	≤ 0.25
DNTG	≤ 0.25
FCYF	≤ 0.25
PEFV	≤ 0.25
GKCT	≤ 0.25
HWKG	≤ 0.25
SDEM	≤ 0.25
GYTY	≤ 0.25
NIKT	≤ 0.25
LSHI	4.24
HTWK	≤ 0.25
ILEM	≤ 0.25
GQNS	≤ 0.25
QKKM	≤ 0.25
IPES	≤ 0.25

Variant	enrichment ratio
FNYL	≤ 0.25
QKNN	≤ 0.25
KKPY	≤ 0.25
HCGG	≤ 0.25
MSVW	≤ 0.25
ESWL	≤ 0.25
DLPL	≤ 0.25
RMHM	≤ 0.25
LTLQ	2.15
MDFE	≤ 0.25
VGEY	≤ 0.25
PYLV	≤ 0.25
TFST	0.983
PRPR	≤ 0.25
FYDI	≤ 0.25
RFIG	≤ 0.25
DLDC	≤ 0.25
WNIV	≤ 0.25
KIPC	≤ 0.25
VGDT	≤ 0.25
KQFC	≤ 0.25
RDAD	≤ 0.25
TWRW	≤ 0.25
HHSS	≤ 0.25

Variant	enrichment ratio
KLGV	≤ 0.25
RFID	≤ 0.25
VYCD	≤ 0.25
NGKV	≤ 0.25
YWHT	≤ 0.25
YVVM	≤ 0.25
YKTT	≤ 0.25
EASL	≤ 0.25
GWWC	≤ 0.25
LDNQ	≤ 0.25
WAQR	≤ 0.25
KMFQ	≤ 0.25
PAAC	≤ 0.25
YGRA	≤ 0.25
VYDH	≤ 0.25
YDFQ	≤ 0.25
EANL	≤ 0.25
MPGL	≤ 0.25
TVIE	≤ 0.25
RMYA	≤ 0.25
LCGK	≤ 0.25
HCIM	≤ 0.25
QYTM	≤ 0.25
KGAM	≤ 0.25

Variant	enrichment ratio
NTIK	≤ 0.25
MTWH	3.91
NCSP	≤ 0.25
IMLY	≤ 0.25
GHAR	≤ 0.25
SICP	0.378
HMTW	5.85
YNLT	≤ 0.25
WLCW	≤ 0.25
YNCS	≤ 0.25
HFER	≤ 0.25
LDVG	≤ 0.25
EDRT	≤ 0.25
MFCM	≤ 0.25
LNAS	≤ 0.25
TFGE	≤ 0.25
PVPI	≤ 0.25
WTMH	≤ 0.25
NSMY	≤ 0.25
NYEW	≤ 0.25
FNCF	0.767
AYKN	6.25
ACGW	4.09
VIWW	≤ 0.25

Variant	enrichment ratio
WCYT	≤ 0.25
FVHM	≤ 0.25
INME	≤ 0.25
ASRE	≤ 0.25
VLAV	≤ 0.25
DIWI	≤ 0.25
MVPD	≤ 0.25
VGKS	≤ 0.25
YKCR	≤ 0.25
YAAV	≤ 0.25
MVLC	4.03
HRPD	≤ 0.25
GQNH	≤ 0.25
HNVL	≤ 0.25
PCDW	≤ 0.25
YMLR	≤ 0.25
PWTA	≤ 0.25
PWST	≤ 0.25
VTHC	≤ 0.25
KCPT	≤ 0.25
FSEA	≤ 0.25
SSVH	14.4
SMIV	≤ 0.25
KRVE	≤ 0.25

Variant	enrichment ratio
QRGC	≤ 0.25
IKRN	≤ 0.25
MNNS	≤ 0.25
PCME	≤ 0.25
IENE	≤ 0.25
GNFT	≤ 0.25
IWCW	≤ 0.25
NPNK	≤ 0.25
RAME	≤ 0.25
RCVR	≤ 0.25
CLYI	≤ 0.25
MYYY	≤ 0.25
DIDA	≤ 0.25
PTYM	≤ 0.25
DCNN	≤ 0.25
FIQE	≤ 0.25
WWTS	≤ 0.25
VSML	15.7
AACE	6.4
VPHT	≤ 0.25
KGDC	≤ 0.25
KYSV	≤ 0.25
IMDL	≤ 0.25
FQIA	≤ 0.25

Variant	enrichment ratio
EMKD	≤ 0.25
AQIH	≤ 0.25
SSED	≤ 0.25
ENLP	≤ 0.25
FCMR	≤ 0.25
KIAQ	≤ 0.25
CSAL	≤ 0.25
VQAY	≤ 0.25
MDCE	≤ 0.25
GIVE	≤ 0.25
SRCN	≤ 0.25
LGSS	≤ 0.25
FKIL	≤ 0.25
ADYQ	≤ 0.25
RKGV	≤ 0.25
AEAL	18.2
EGWH	≤ 0.25
PIAD	≤ 0.25
TQRA	≤ 0.25
SSTN	7.6
QSSF	0.995
SLFI	≤ 0.25
WLKS	≤ 0.25
KHHN	≤ 0.25

Variant	enrichment ratio
LNHK	≤ 0.25
YVGP	≤ 0.25
RDLL	≤ 0.25
VLVP	≤ 0.25
IQEK	≤ 0.25
NIVE	≤ 0.25
SPFD	≤ 0.25
GCCK	≤ 0.25
WRHY	≤ 0.25
QVDV	≤ 0.25
VWQC	≤ 0.25
AMLT	≤ 0.25
WMGV	≤ 0.25
QAAV	≤ 0.25
EASF	≤ 0.25
HELG	12.3
RSPW	≤ 0.25
SIWC	≤ 0.25
VFDK	≤ 0.25
TNYG	10.7
ANFQ	≤ 0.25
LVML	0.532
ESVH	≤ 0.25
MSVR	0.327

Variant	enrichment ratio
EMRW	≤ 0.25
VSLG	4.33
YHIK	1.44
RFQE	≤ 0.25
FDTY	≤ 0.25
PMMH	≤ 0.25
VFGR	≤ 0.25
NKLW	≤ 0.25
PTGF	≤ 0.25
LSIG	≤ 0.25
PHMY	≤ 0.25
FYTE	≤ 0.25
PRCT	≤ 0.25
KDYV	≤ 0.25
IYKK	≤ 0.25
EYNF	≤ 0.25
YSWI	≤ 0.25
QDRW	≤ 0.25
FDEY	≤ 0.25
YDDL	≤ 0.25
FMHP	≤ 0.25
TLHM	≤ 0.25
LWWC	≤ 0.25
KSGW	≤ 0.25

Variant	enrichment ratio
THPA	≤ 0.25
HPMG	≤ 0.25
GMKY	≤ 0.25
GWQT	≤ 0.25
SSEE	≤ 0.25
NTLW	≤ 0.25
MLVE	≤ 0.25
DVET	≤ 0.25
VKRL	≤ 0.25
QPKK	≤ 0.25
TAPT	≤ 0.25
PFML	≤ 0.25
IQQV	≤ 0.25
HFVH	≤ 0.25
AGCT	5.91
YTRL	≤ 0.25
FHNP	≤ 0.25
LLHD	≤ 0.25
YFNQ	≤ 0.25
AVYK	≤ 0.25
EHAQ	≤ 0.25
MPGQ	≤ 0.25
MIHP	≤ 0.25
YDKQ	≤ 0.25

Variant	enrichment ratio
FPWK	≤ 0.25
GVFF	≤ 0.25
QGLS	3.82
DWVH	≤ 0.25
WEVG	≤ 0.25
FRYC	≤ 0.25
DYCS	≤ 0.25
KKAR	≤ 0.25
VCQY	≤ 0.25
YFMC	≤ 0.25
WFWH	≤ 0.25
VHFG	≤ 0.25
YVNF	≤ 0.25
MYIG	≤ 0.25
FLTL	0.273
YPKW	≤ 0.25
EYCV	≤ 0.25
HLVC	≤ 0.25
VITP	≤ 0.25
AVTK	17.9
NCAQ	≤ 0.25
LASC	≤ 0.25
RECT	≤ 0.25
VKHE	≤ 0.25

Variant	enrichment ratio
SNDS	≤ 0.25
RHNA	≤ 0.25
EVNT	≤ 0.25
HFYC	≤ 0.25
WPLY	≤ 0.25
KQTH	≤ 0.25
SKPF	≤ 0.25
ACVP	≤ 0.25
EYMF	≤ 0.25
FLIK	≤ 0.25
VVMQ	13.3
EVRI	≤ 0.25
VCTP	≤ 0.25
RARW	≤ 0.25
LMTN	≤ 0.25
SDLE	≤ 0.25
RRLM	0.277
FKFF	≤ 0.25
